# Assay results: ChEMBL document CHEMBL4888484, “Replenishing the malaria drug discovery pipeline: Screening and hit evaluation of the MMV Hit Generation Library 1 (HGL1) against asexual blood stage Plasmodium falciparum ,using a nano luciferase reporter read-out” (2022)
# In all, about 150,000 compounds went through this assay and about 540 (0.36%) showed an effect of 50% or more. This is one part of the list.
# Tested on: Plasmodium falciparum
# Experiment: Primary screen in NF54 nanoGlo assay, in single point, at 2uM, 72h; a lower Z score goes with more inhibition
# Assay type: functional, Erythrocyte
# Conditions: timepoint 72 hour
SMILES,% Inhibition [%],Z score
Cc1ccnc(NC(=O)c2ccc(Oc3ccccc3)cc2)c1,-5,0.69
CCCOc1ccccc1CCNC(=O)N1CC[C@H](NC(C)=O)C1,-2,0.35
CC(C)CC1OCCCC1NC(=O)c1cccn(C)c1=O (stereo unspecified),-7,0.6
Cc1nn(C)c(C)c1NC(=O)CNc1ccccc1N1CCCCC1,32,-3.58
CN(C(=O)Cn1ccnn1)c1ccccc1Oc1ccccc1,7,-1.31
CC(=O)c1ccc(S(=O)(=O)N2CCN(CC(=O)Nc3c(C)n(C)n(-c4ccccc4)c3=O)CC2)cc1,-1,0.08
Cc1ccc(S(=O)(=O)N2CCOCCN(S(=O)(=O)c3ccc(C)cc3)CCOCC2)cc1,-14,1.91
CCC(=O)N(Cc1c(-c2ccccc2)noc1N1CCCC1)CC(C)C,0,0.01
NC(=NCc1cccc(O)c1)NCCc1ccccn1,-6,0.86
CCCn1cc(C(=O)N2C[C@H](c3ccc(C)cc3)[C@@H](N(C)C)C2)c(C)n1,13,-1.61
C[C@@H](C(=O)NC1(C#N)CCCCC1)N1CCC(c2ccsc2)CC1,2,-0.49
C[C@@H](NC(=O)c1cc(C(=O)OC(C)(C)C)[nH]n1)c1cc(Cl)ccc1OC(F)F,-14,2.62
C[C@@H](CCc1ccccc1)NC(=O)c1cc2n(n1)CCCO2,-19,3.02
c1cc2c(cc1CNc1nnc([C@@H]3CCCO3)o1)CCO2,-9,1.71
Cc1ccc(NC(=O)c2cccc(OC(=S)NCc3ccccc3)c2)cc1,-6,1
O=C(c1csc(-c2ncccc2F)n1)N1CCOC[C@@H]1CC1CC1,-15,1.7
c1cc(-c2nc3c(c(N4CCC[C@H](c5ncc[nH]5)C4)n2)CCC3)ccn1,4,-0.36
Oc1ccc(Cl)cc1[C@@H](C#Cc1ccccc1)N1CCOCC1,-2,0.27
Cc1nccn1CC(=O)N[C@@H](C)C1=CCCCC1,3,-0.38
Cc1cccc(CN(CCN2CCCCC2)C[C@H]2CCCN(C3CCCC3)C2)n1,9,-1.89
Cc1cc(C(=O)N2CCC[C@H](CN3CCOCC3)C2)nc(N)n1,-7,0.82
CN(C)c1noc(CN2CCCC2=O)n1,5,-0.84
CC(=O)[C@H](C)n1nc(C2CC2)ccc1=O,-17,2.21
Cc1ncc2c(c1-c1noc(CCn3c(C)nc4ccccc43)n1)CCNC2,-5,0.63
CC(C)CCC(CCN1CCCC1)C1CCOC(C)(C)C1 (stereo unspecified),2,-0.42
O=C(Nc1ccc(Cl)cc1)[C@@H]1CCCN1,-14,1.88
COc1cc(CC(=O)NC2CC(C)(OC)C2(C)C)cc(OC)c1O (stereo unspecified),-12,1.34

SMILES,% Inhibition [%],Z score
c1ccc(-c2nccc(-c3ccc(-n4cncn4)cc3)n2)nc1,49,-2.29
CC(C)(C)N1CC[C@H](NC(=O)NCc2ncn(Cc3cccc(F)c3)n2)C1,1,-0.2
CCN(C[C@H]1COc2ccccc2O1)C(=O)c1cnc(C)cn1,-17,1.41
COCc1noc(CCNc2nc(C)nc3oc(C)nc23)n1,1,-0.25
COc1ccc(-c2noc(-c3cccn3CC(=O)Nc3ccc4c(c3)CCC4)n2)cc1F,-4,0.51
Cc1nn(-c2nc3ccccc3[nH]2)c(O)c1Cc1ccccc1,63,-1.65
c1cc(-c2nc(CN3CCC4(C3)OCCO4)no2)cs1,-14,2.62
COCc1nc2n(n1)CC(NC1CCC(C)C(C)C1)CC2 (stereo unspecified),1,-0.12
Cc1cccc2c1NC(=O)[C@]21[C@@H](C(=O)c2ccc(OC(C)C)cc2)[C@]2(C(=O)Nc3ccccc32)[C@@H]2CCCN21,-25,2.22
Cc1ccc(Cc2ccccc2C(=O)N2C[C@@H](C)[C@@](C)(O)C2)cc1,-6,1.11
Cc1cc(C)n(-c2c(-c3ccccc3)c(=O)n3c4c(cccc24)CCC3)n1,-13,1.67
Clc1cc(CNCCc2ccccc2)ccc1OCc1ccccc1,39,-4.47
CCCOc1cc(S(N)(=O)=O)ccc1Br,3,-0.33
Cc1cccc(Cn2c(C(=O)NCc3ccccc3)cc3cc(NC(=O)c4ccc(C)c(C)c4)ccc32)c1,13,-1.79
Cn1cccc1[C@@H]1CCCN1Cc1cccc2cccnc12,-15,1.34
CN(Cc1cccnc1)C[C@H]1CCCN(c2nccc3ccsc23)C1,-2,0.32
CC(C)CC[C@H]1CCCCN1c1nnc(-c2ccon2)s1,-6,1.23
O=C(Cn1cnc2ccccc2c1=O)NCCNC1=NS(=O)(=O)c2ccccc21,-10,1.22
CCOC(=O)C1CCN([C@@H](C(=O)NC2CCCCC2)c2ccc(C)cc2)CC1,2,-0.36
CCOc1ccc2c(c1)C(c1ccc(Cl)cc1)=NNC(c1ccccc1)=N2,-10,1.52
CN(C)S(=O)(=O)NCCNc1ncc(Cl)cc1Cl,2,-0.15
CNC(=O)Cn1cc(N[C@H]2CCN(c3ccc(Cl)cc3Cl)C2=O)cn1,-14,1.45
O=S(=O)(C1CCC(C(F)(F)F)CC1)N1CC[C@H](c2nc(C3CC3)no2)C1 (stereo partly specified),16,-1.99
O=C(Nc1cccc(S(=O)(=O)N2CCOCC2)c1)N1CCCCCCC1,-15,2.55
O=C(Cn1c(C2CCCCC2)nc2ccccc21)Nc1nncn1C1CC1,-15,1.53
CCc1nnc(-c2ccc(=O)n(CC(=O)Nc3ccc(C)c(C)c3)c2)o1,2,-0.33
